According to PubChem BioAssay AID1460 (National Center for Advancing Translational Sciences (NCATS), 2008):
The campaign covered roughly 270,000 compounds. About 5,800 (2.1%) were called active. Inconclusive means that the source gave no clear call. Such entries were picked first, then a sample of the others. Calls follow the shape of the dose curve; as a rule, active = well fitted inhibition curve with a large enough effect; inconclusive = small, poorly fitted or top-dose-only effect; inactive = flat fitted curve, though single readings scatter. Potencies beside an inconclusive call are fits to weak or partial responses and may not hold up.
Also: nearly all actives have a fitted effect of over 55% in size.
Potency is read from the fitted curve at half-maximal effect; tags tell the direction and shape of the fitted curve.

Each compound was assayed against Microtubule-associated protein tau (Homo sapiens) (UniProt P10636) (assay: qHTS for Inhibitors of Tau Fibril Formation, Thioflavin T Binding). Settings: recombinant tau K18 P301L, heparin-induced fibrillization, ThT fluorescence; series mostly up to 57.4 µM.
Chain of UniProt P10636 (P10636 whole entry, looked up): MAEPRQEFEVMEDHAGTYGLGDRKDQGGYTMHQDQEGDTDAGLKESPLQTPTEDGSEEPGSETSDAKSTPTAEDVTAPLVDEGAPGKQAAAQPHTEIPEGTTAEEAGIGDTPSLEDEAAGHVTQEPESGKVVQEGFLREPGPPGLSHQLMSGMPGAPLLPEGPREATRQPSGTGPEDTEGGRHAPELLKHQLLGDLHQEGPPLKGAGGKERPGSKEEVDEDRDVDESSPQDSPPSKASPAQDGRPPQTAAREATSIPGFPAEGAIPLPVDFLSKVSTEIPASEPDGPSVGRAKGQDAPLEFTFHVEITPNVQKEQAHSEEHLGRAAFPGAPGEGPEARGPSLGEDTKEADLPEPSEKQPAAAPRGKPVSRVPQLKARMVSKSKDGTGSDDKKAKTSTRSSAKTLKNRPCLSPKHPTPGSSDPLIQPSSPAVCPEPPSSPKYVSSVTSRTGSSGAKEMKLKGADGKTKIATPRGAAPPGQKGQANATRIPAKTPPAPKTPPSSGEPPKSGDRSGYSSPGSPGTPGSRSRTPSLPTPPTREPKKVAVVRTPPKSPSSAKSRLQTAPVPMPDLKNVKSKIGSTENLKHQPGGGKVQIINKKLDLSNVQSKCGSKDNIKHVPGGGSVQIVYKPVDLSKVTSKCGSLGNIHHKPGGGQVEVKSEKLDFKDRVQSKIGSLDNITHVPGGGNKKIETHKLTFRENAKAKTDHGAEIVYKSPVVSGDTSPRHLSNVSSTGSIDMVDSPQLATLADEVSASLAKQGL
How it was run: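 Fibril formation assay: tau K18 P301L at 15 uM with trace Alexa 594 label, heparin inducer 20 uM, pH 7 sodium acetate buffer, 37 C for 6 hr; endpoint ThT signal.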
With `O=C1c2ccccc2-c2onc3c(N4CCN(C5CCCCC5)CC4)cc(NCCO)c1c23` the Potency was active: 7.08 µM. In the case of `C/C(=N\Nc1ccc(S(=O)(=O)N2CCOCC2)cc1[N+](=O)[O-])C(C)C`, the Potency is reported as inconclusive: 39.8 µM [inhibitor, single point]. For `CCc1ccc2oc(C(=O)N(Cc3ccc(N(C)C)cc3)Cc3ccco3)c(C)c2c1`, the Potency was inconclusive: 7.94 µM [inhibitor, partial curve]. For `CCS(=O)(=O)N1CCN(c2ccccn2)CC1`, the Potency was inconclusive: 11.2 µM [inhibitor, partial curve]. For `COc1ccccc1-n1c(=S)sc2c(=O)n(Cc3ccco3)c(SC)nc21`, the Potency was “inactive”. In the case of `Cc1cccc(N2CCN(C(=O)Cn3sc4nc(C)cc(C)c4c3=O)CC2C)c1` (stereo not given), the Potency is reported as active: 12.6 µM. With `Fc1ccc(/C=C2\CCCC3=C2Nc2ncnn2C3c2ccc(F)cc2)cc1` (stereo not given) the Potency was inconclusive: 20 µM [inhibitor, partial curve]. `CC1CCC/C(=C\Nc2ccc(O)cc2)C1=O` (stereo not given) was tested, and the Potency was active: 17.8 µM. `O=C1CCCC2=C1C(c1ccco1)Nc1ccc3ccccc3c12` (stereo not given) was tested, and the Potency was inconclusive: 17.8 µM [inhibitor, partial curve]. For `CC(C)N(CC#CCC1(O)c2ccccc2-c2ccccc21)CCO`, the Potency was “inactive”. `COc1ccc(/C=C/C(=O)OCC(=O)c2c(C)[nH]c3ccccc23)cc1OC` was tested, and the Potency was inconclusive: 44.7 µM [activator, single point]. `O=C1CCCC(O)=C1N=Nc1ccc(S(=O)(=O)N2CCOCC2)cc1` was tested, and the Potency was inconclusive: 31.6 µM [inhibitor, single point]. In the case of `COc1cccc(Nc2nnc(-c3cc4ccc(O)cc4oc3=O)s2)c1`, the Potency is reported as inconclusive: 31.6 µM [inhibitor, single point]. `CCOc1ccc(NC(=O)Cn2c(=O)n(CCc3ccccc3)c(=O)c3c4c(sc32)CCCC4)cc1` was tested, and the Potency was “inactive”. For `S=C(Nc1ccc2cn[nH]c2c1)Nc1ccc(Cl)cc1Cl`, the Potency was active: 15.8 µM. In the case of `COc1ccc(-c2cc3ccccc3n2CC(O)Cn2nc(C)cc2C)cc1` (stereo not given), the Potency is reported as inconclusive: 25.1 µM [inhibitor, single point]. In the case of `CC(C)OC(=O)CC(=O)c1sc2nc3c(cc2c1N)CN(C)CC3`, the Potency is reported as inconclusive: 14.1 µM [inhibitor, partial curve]. For `Cc1ccc(-n2nc3cc(C)c(NC(=O)c4ccc(-c5ccccc5)o4)cc3n2)cc1`, the Potency was inconclusive: 3.16 µM [inhibitor, full curve]. In the case of `COc1cccc(C2CC(=O)Nc3c2c(=O)n(C)c2nc4ccccc4n32)c1OC` (stereo not given), the Potency is reported as “inactive”. `Cn1c(N/N=C/c2ccccc2)nc2sc3c(c2c1=O)CCC3` was tested, and the Potency was inconclusive: 22.4 µM [inhibitor, partial curve]. With `COc1cc(NC(=O)c2ccc(COc3ccccc3Br)o2)cc(OC)c1OC` the Potency was inconclusive: 14.1 µM [inhibitor, partial curve]. `O=C(Cn1c(=O)c2sccc2n(Cc2ccc([N+](=O)[O-])cc2)c1=O)NCCc1ccccc1` was tested, and the Potency was inconclusive: 39.8 µM [inhibitor, single point]. For `CCCc1ccc(C2C3=C(CC(C)(C)CC3=O)NC3=C2C(=O)c2ccccc23)cc1` (stereo not given), the Potency was inconclusive: 14.1 µM [inhibitor, single point]. `C=CCn1c(-c2ccc(OC)c(OC)c2)cs/c1=N\c1ccccn1` was tested, and the Potency was inconclusive: 15.8 µM [inhibitor, partial curve]. In the case of `COc1cccc(CC(NC(C)=O)C(=O)NC2CCN(c3nnnn3-c3ccccc3)CC2)c1` (stereo not given), the Potency is reported as “inactive”. In the case of `CCOC(=O)COc1c(-c2ccc(OC)cc2)oc2ccccc2c1=O`, the Potency is reported as inconclusive: 35.5 µM [inhibitor, partial curve]. For `CC(C)C1Nc2c(O)cc(Cl)c([N+](=O)[O-])c2C2C=CCC21` (stereo not given), the Potency was active: 11.2 µM. With `COc1ccc2c(c1)C1C=CCC1C(c1cc3c(cc1Br)OCO3)N2` (stereo not given) the Potency was inconclusive: 28.2 µM [inhibitor, single point]. For `COc1ccc(C(=O)CSc2nnc(COc3ccccc3)n2Cc2ccco2)cc1`, the Potency was inconclusive: 39.8 µM [inhibitor, single point]. With `CC1CCc2c(nc3sc4c(c3c2N)CCCC4)C1` (stereo not given) the Potency was inconclusive: 3.16 µM [inhibitor, partial curve]. `CCC(CC)C(=O)c1c[nH]c(C(=O)O)c1` was tested, and the Potency was “inactive”. For `COc1ccc2ccc3c(c2c1)N=CC1(O3)N(C)c2ccccc2C1(C)C` (stereo not given), the Potency was active: 10 µM. For `CN(C)c1ccc(N/C(N)=N/c2nc(C(F)(F)F)cc(C(F)(F)F)n2)cc1`, the Potency was inconclusive: 12.6 µM [inhibitor, partial curve]. In the case of `CCCCNC(=O)CCC1N=C2c3ccccc3N=C(SCC(=O)NCCc3ccc(OC)c(OC)c3)N2C1=O` (stereo not given), the Potency is reported as “inactive”. For `O=C(NC1CCCc2ccccc21)C1CCN(C(=O)c2sccc2-n2cccc2)CC1` (stereo not given), the Potency was inconclusive: 31.6 µM [inhibitor, single point]. In the case of `CCCc1ccc(-c2ccc(F)c(N)c2)nc1`, the Potency is reported as “inactive”. With `Cc1ccc(Cl)cc1N1CCN(C(=O)Cn2cnc3onc(-c4ccc(F)cc4)c3c2=O)CC1` the Potency was “inactive”. In the case of `O=C1OC(c2ccccc2)=C/C1=C/N1CCCCC1`, the Potency is reported as active: 28.2 µM. With `CCCNC(=O)NC(=O)COC(=O)c1ccc(OC)c(S(=O)(=O)N2CCCc3ccccc32)c1` the Potency was “inactive”. `Cc1cc(N/N=C/c2ccc(O)cc2O)nc(-c2ccccc2O)n1` was tested, and the Potency was inconclusive: 2.82 µM [inhibitor, partial curve]. In the case of `COc1ccc(N2CCN(C(=O)CSc3nnc4c(C)cc5cc(C)ccc5n34)CC2)cc1`, the Potency is reported as inconclusive: 14.1 µM [inhibitor, partial curve]. With `Cc1cc(/C=N/O)c(C)n1-c1ccccc1` the Potency was “inactive”. In the case of `Cc1ccc(NC(=O)C2SC(=Nc3ccccc3)C(C(=O)Nc3ccc(Cl)cc3)=C2N)cc1` (stereo not given), the Potency is reported as inconclusive: 22.4 µM [inhibitor, partial curve, poor fit]. For `CC(O)CNc1nc2sc3c(c2c(=O)n1Cc1ccco1)CCCCC3` (stereo not given), the Potency was inconclusive: 39.8 µM [inhibitor, single point]. `C/C(=N\NC(=O)c1ccc(Cl)cc1)c1cccc(NC(=O)c2cccnc2)c1` was tested, and the Potency was inconclusive: 5.01 µM [inhibitor, full curve].
